Laboratory results reported in the supplement of paper PMC4604168 (melanoma cell lines).
The other results are listed elsewhere or left out. Repeats are few or missing, and single values can be far off.

What was measured:
Assay in all cases: cell count relative to DMSO control; melanoma cells; higher = more viable cells
Conditions in all cases: library dose: low library concentration; 72 h
MeWo = system: MeWo
RPMI7951 = system: RPMI7951
RVH-421 = system: RVH-421
SkMel28 = system: SkMel28
SkMel30 = system: SkMel30
UACC62 = system: UACC62
WM115 = system: WM115
WM1716 = system: WM1716
WM1745 = system: WM1745
WM3526 = system: WM3526
WM3619 = system: WM3619
WM451Lu = system: WM451Lu
MZ2-MEL = system: MZ2-MEL
SkMel2 = system: SkMel2
SkMel5 = system: SkMel5
UACC257 = system: UACC257
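Further: cell number obtained by counting DAPI-stained nuclei in high-throughput microscope images with image analysis software, screen run in 1,536-well plates.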

Row | SMILES | cell count (MeWo) | cell count (RPMI7951) | cell count (RVH-421) | cell count (SkMel28) | cell count (SkMel30) | cell count (UACC62) | cell count (WM115) | cell count (WM1716) | cell count (WM1745) | cell count (WM3526) | cell count (WM3619) | cell count (WM451Lu) | cell count (MZ2-MEL) | cell count (SkMel2) | cell count (SkMel5) | cell count (UACC257)
1 | C=C(c1ccc(C(=O)O)cc1)c1cc2c(cc1C)C(C)(C)CCC2(C)C [Bexarotene] + Nc1ncn([C@H]2C[C@H](O)[C@@H](CO)O2)c(=O)n1 [decitabine] (first compound 2 µM, partner dose 0.1 µM) | 78.3% | 68% | 83.7% | 75.8% | 117% | 70.7% | 91.3% | 80.8% | 95.5% | 79.3% | 106% | 90% | – | – | – | –
2 | CN(c1ncccc1CNc1nc(Nc2ccc3c(c2)CC(=O)N3)ncc1C(F)(F)F)S(C)(=O)=O + Nc1ncn([C@H]2C[C@H](O)[C@@H](CO)O2)c(=O)n1 [decitabine] (first compound 0.08 µM, partner dose 0.1 µM) | 103% | 75.9% | 75.1% | 99.1% | 91.4% | 70.9% | 76.4% | 70.7% | 72.7% | 113% | 93.8% | 76.5% | 75.9% | 89.7% | – | –
3 | C=C(c1ccc(C(=O)O)cc1)c1cc2c(cc1C)C(C)(C)CCC2(C)C [Bexarotene] + C[C@]1(c2nc3c(C(N)=O)cccc3[nH]2)CCCN1 [Veliparib] (first compound 2 µM, partner dose 1.4 µM) | 77.8% | 80.5% | 87.8% | 88.5% | 80.8% | 79% | 73.6% | 82.6% | 85.2% | 95.9% | 88.1% | 87.7% | 97.5% | 92.4% | – | –
4 | CCCS(=O)(=O)Nc1ccc(F)c(C(=O)c2c[nH]c3ncc(Cl)cc23)c1F + NC(=O)Nc1cc(-c2cccc(F)c2)sc1C(=O)N[C@H]1CCCNC1 [AZD7762] (first compound 0.08 µM, partner dose 0.02 µM) | 115% | 91.4% | 103% | 81.9% | 132% | 68.2% | 99.9% | 101% | 112% | 58.8% | 97.9% | 99.7% | – | – | 96% | 96.1%
5 | CS(=O)(=O)c1ccc(C(=O)Nc2ccc(Cl)c(-c3ccccn3)c2)c(Cl)c1 [vismodegib] + CCN(CC)CCNC(=O)c1c(C)[nH]c(/C=C2\C(=O)Nc3ccc(F)cc32)c1C [sunitinib] (first compound 1 µM, partner dose 0.4 µM) | 107% | 90.2% | 116% | 103% | 97.7% | 110% | 128% | 128% | 105% | 90.9% | 137% | 93.9% | 104% | 102% | – | –
6 | CN(c1ncccc1CNc1nc(Nc2ccc3c(c2)CC(=O)N3)ncc1C(F)(F)F)S(C)(=O)=O + COc1cc2c(Oc3ccc4[nH]c(C)cc4c3F)ncnc2cc1OCCCN1CCCC1 [cediranib] (first compound 0.08 µM, partner dose 0.4 µM) | 100% | 72.5% | 89.2% | 101% | 118% | 81.8% | 86.6% | 84.1% | 85.2% | 76.3% | 104% | 71.4% | – | – | 76.6% | 78.1%
7 | CN(c1ncccc1CNc1nc(Nc2ccc3c(c2)CC(=O)N3)ncc1C(F)(F)F)S(C)(=O)=O + Clc1ccc(Nc2nnc(Cc3ccncc3)c3ccccc23)cc1 [vatalanib] (first compound 0.08 µM, partner dose 2 µM) | 81.5% | 59.1% | 91% | 76.9% | 87.1% | 80.6% | 83% | 93.9% | 90.9% | 94.1% | 79.8% | 90.5% | 88% | – | – | –
8 | C=C(c1ccc(C(=O)O)cc1)c1cc2c(cc1C)C(C)(C)CCC2(C)C [Bexarotene] + C[C@@H]1CCN(C(=O)CC#N)C[C@@H]1N(C)c1ncnc2[nH]ccc12 [CP690550] (first compound 2 µM, partner dose 1 µM) | 88.4% | 67.2% | 113% | 75.1% | 97.8% | 93.1% | 93.9% | 90.1% | 89% | 80.3% | 126% | 76.4% | – | – | 71% | 101%
9 | CS(=O)(=O)c1ccc(C(=O)Nc2ccc(Cl)c(-c3ccccn3)c2)c(Cl)c1 [vismodegib] + Cn1nnc2c(C(N)=O)ncn2c1=O [temozolomide] (first compound 1 µM, partner dose 2 µM) | 96% | 96.5% | 107% | 98.9% | 93.1% | 89% | 109% | 94.5% | 124% | 84.7% | 123% | 111% | 102% | 106% | – | –
10 | NC1(c2ccc(-c3nc4ccn5c(=O)[nH]nc5c4cc3-c3ccccc3)cc2)CCC1 + Nc1ncn([C@H]2C[C@H](O)[C@@H](CO)O2)c(=O)n1 [decitabine] (first compound 0.4 µM, partner dose 0.1 µM) | 82.1% | 85% | 77.2% | 71.5% | 91.7% | 62% | 68.8% | 79.3% | 89.7% | 72.4% | 101% | 102% | 75.1% | 84.6% | – | –
11 | CS(=O)(=O)c1ccc(C(=O)Nc2ccc(Cl)c(-c3ccccn3)c2)c(Cl)c1 [vismodegib] + Nc1cccc2c1CN(C1CCC(=O)NC1=O)C2=O [lenalidomide] (first compound 1 µM, partner dose 1 µM) | 117% | 114% | 112% | 95.8% | 106% | 99.6% | 112% | 102% | 91.8% | 97.7% | 103% | 102% | 103% | – | – | –
12 | CCCS(=O)(=O)Nc1ccc(F)c(C(=O)c2c[nH]c3ncc(Cl)cc23)c1F + C=CCNC1=C2C[C@@H](C)C[C@H](OC)[C@H](O)[C@@H](C)/C=C(\C)[C@H](OC(N)=O)[C@@H](OC)/C=C\C=C(/C)C(=O)NC(=CC1=O)C2=O [Tanespimycin] (first compound 0.08 µM, partner dose 0.002 µM) | 83.6% | 80.9% | 95.1% | 67% | 76.2% | 87.6% | 91.7% | 108% | 97.9% | 83.2% | 107% | 123% | 81.7% | 91.9% | – | –
13 | CN(c1ncccc1CNc1nc(Nc2ccc3c(c2)CC(=O)N3)ncc1C(F)(F)F)S(C)(=O)=O + CO[C@@H]1[C@H](N(C)C(=O)c2ccccc2)C[C@H]2O[C@]1(C)n1c3ccccc3c3c4c(c5c6ccccc6n2c5c31)C(=O)NC4 [Midostaurin] (first compound 0.08 µM, partner dose 0.08 µM) | 83.9% | 79.7% | 82.6% | 94.5% | 86.5% | 92.6% | 72.5% | 75.5% | 75.3% | 104% | 57.7% | 80.1% | – | 79.3% | 86.2% | 107%
